Here are results for 55 molecules from PMC4336329 (PLoS ONE, 2015).

Screen size: about 310,000 compounds; about 2,200 (0.71%) showed an effect of 50% or more. Effects have a minus sign here. The list shows a part of the results.

The target in the assay is human ether-à-go-go-related gene (hERG) potassium channel (human, UniProt Q12809). In words: primary screen, population patch clamp on CHO cells stably expressing hERG.
human ether-à-go-go-related gene (hERG) potassium channel, sequence (Q12809 whole entry, looked up): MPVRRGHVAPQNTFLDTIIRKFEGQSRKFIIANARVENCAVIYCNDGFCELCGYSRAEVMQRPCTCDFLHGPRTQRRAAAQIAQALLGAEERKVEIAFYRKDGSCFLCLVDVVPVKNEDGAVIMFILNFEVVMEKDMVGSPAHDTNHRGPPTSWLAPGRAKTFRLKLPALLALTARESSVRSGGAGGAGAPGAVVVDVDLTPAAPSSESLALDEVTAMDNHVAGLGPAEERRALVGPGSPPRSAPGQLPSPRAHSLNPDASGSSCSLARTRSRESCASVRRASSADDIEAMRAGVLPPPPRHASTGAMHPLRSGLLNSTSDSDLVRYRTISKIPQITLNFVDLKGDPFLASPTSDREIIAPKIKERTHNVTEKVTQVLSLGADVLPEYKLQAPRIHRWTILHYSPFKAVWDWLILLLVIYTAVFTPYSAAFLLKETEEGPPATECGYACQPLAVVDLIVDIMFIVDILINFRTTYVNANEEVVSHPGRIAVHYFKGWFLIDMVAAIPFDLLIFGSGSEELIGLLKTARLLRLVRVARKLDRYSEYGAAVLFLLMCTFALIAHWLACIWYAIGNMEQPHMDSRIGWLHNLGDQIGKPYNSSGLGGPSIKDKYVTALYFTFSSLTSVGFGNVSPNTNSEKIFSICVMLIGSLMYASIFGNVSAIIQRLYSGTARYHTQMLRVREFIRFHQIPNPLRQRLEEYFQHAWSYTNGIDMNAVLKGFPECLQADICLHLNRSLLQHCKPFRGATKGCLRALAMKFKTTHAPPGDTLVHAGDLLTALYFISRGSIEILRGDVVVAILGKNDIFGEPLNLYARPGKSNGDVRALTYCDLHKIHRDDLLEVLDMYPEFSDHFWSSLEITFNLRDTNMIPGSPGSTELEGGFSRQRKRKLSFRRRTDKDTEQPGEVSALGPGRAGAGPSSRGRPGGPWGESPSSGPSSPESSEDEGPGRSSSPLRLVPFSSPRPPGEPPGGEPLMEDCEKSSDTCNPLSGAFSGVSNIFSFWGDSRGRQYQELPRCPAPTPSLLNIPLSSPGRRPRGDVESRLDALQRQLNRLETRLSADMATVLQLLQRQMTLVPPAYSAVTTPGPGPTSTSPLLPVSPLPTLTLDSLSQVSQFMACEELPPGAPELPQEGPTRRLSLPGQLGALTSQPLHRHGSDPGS
Take `CC1NC(=O)NC1CCCCC(=O)O` (stereo not shown): the “hERG current change (%, negative = inhibition) at 1uM” value is listed as -5.07%.
Under `CCC(Cc1ccccc1)NS(=O)(=O)c1ccc2c(c1)NC(=O)CO2` (stereo not shown) stands 7.15%; under `CNc1nc(N)c([N+](=O)[O-])c(NCc2ccccc2)n1`, 9.04%; under `CCn1c(=O)n(CC)c2cc(N3CCCC3)c(NC(=O)c3cccc(Cl)c3)cc21`, 13.6%.
`COc1ccc(CCn2c(O)c(C=Nc3ccccc3F)c(=O)[nH]c2=O)cc1OC`: the “hERG current change (%, negative = inhibition) at 1uM” value is recorded as 18.5%.
Under `COc1ccc(Oc2cc(C)nc(Cl)n2)nn1` stands 9.5%; under `BrC(/C=N/N1CCN(Cc2ccccc2)CC1)=C/c1ccccc1`, -0.0237%.
In the case of `CC(C)C(=O)OC1CCS(=O)(=O)c2sccc21` (stereo not shown), the “hERG current change (%, negative = inhibition) at 1uM” value worked out at 11.1%.
For the molecule `O=C(O)C(=O)O.OC(CNCC1COc2ccccc2O1)COCc1cccs1` (stereo not shown), the “hERG current change (%, negative = inhibition) at 1uM” value is -25.3%.
For the molecule `CN(C)c1nc(SCC(=O)Nc2ccc(Cl)c(Cl)c2)nc(N2CCOCC2)n1`, the “hERG current change (%, negative = inhibition) at 1uM” value is 2.56%.
In the case of `CCC1(CC)C(=O)C2=C3C1[C@H](C(=O)OC)C=C(C(=O)OC)C[C@H]3[C@H]1C(=O)N(CC(=O)OC)C(=O)[C@H]1[C@H]2C` (stereo partly shown) it was 10.8%; in that of `O=C(c1ccc2c3c(cccc13)CC2)C1CCCN(C(=O)c2ccc[n+]([O-])c2)C1` (stereo not shown), 2.52%; in that of `CC(NC(C)c1ccccc1Cl)C(=O)Nc1cccc(S(=O)(=O)N2CCCCC2)c1` (stereo not shown), 9.92%.
For the molecule `CC(=O)NCc1ccc(S(=O)(=O)N/N=C/c2ccccc2)cc1`, the “hERG current change (%, negative = inhibition) at 1uM” value is 7.62%.
In the case of `COc1cc(C2CC(=O)N3CN(c4ccccc4C)CSC3=C2C#N)cc(OC)c1OC` (stereo not shown) it was 4.19%; in that of `O=C(COC(=O)c1cccc(-n2cnnn2)c1)c1ccc(F)cc1`, 7.04%; in that of `Cc1ccccc1OCC(=O)N/N=C/c1ccco1`, 15.3%.
Consider `COc1ccc(C)cc1S(=O)(=O)NCC(c1cccnc1)N1CCc2ccccc2C1` (stereo not shown), for which the “hERG current change (%, negative = inhibition) at 1uM” value is listed as 8.76%.
In the case of `CC1(C)Cc2nc3sc4c(N(CCO)CCO)nnnc4c3cc2CO1` it was 4.01%.
`O=C(NC(=S)Nc1ccc(NC(=O)c2ccccc2)cc1)c1ccc(F)cc1`: the “hERG current change (%, negative = inhibition) at 1uM” value was determined as 7.94%.
In the case of `COCCn1c(O)c(/C=N/NC(=O)CSC(=S)N2CCCC2)c(=O)[nH]c1=S` it was 11.5%; in that of `CCSc1nnc(NC(=O)c2cnccn2)s1`, 18.2%.
Under `Cc1ccc[n+](CC2OCc3ccccc3CO2)c1.[Br-]` stands 13.5%.
Under `COc1ccc(N2CCN(C(=O)c3ccc(Br)cc3)CC2)c([N+](=O)[O-])c1` stands -30.1%; under `O=C1c2ccccc2C(O)(Cc2ccccc2)N1c1ccc2c(c1)OCO2` (stereo not shown), 13.8%; under `CC(C)(C)c1cc(CN2CCN(CCO)CC2)cc(C(C)(C)C)c1O`, -1.88%.
For `CCOc1ccc2oc(C(=O)N(CCOC)c3c(N)n(CC(C)C)c(=O)[nH]c3=O)c(C)c2c1`, the “hERG current change (%, negative = inhibition) at 1uM” value amounted to 4.06%.
On to `Cc1ccc(S(=O)(=O)Nc2ccccc2N(C)S(=O)(=O)c2ccc(C)cc2)cc1`, for which the “hERG current change (%, negative = inhibition) at 1uM” value was found to be 14%.
Regarding `COc1ccc(CC(=O)OCc2cc3cccc(C)c3[nH]c2=O)cc1`, the “hERG current change (%, negative = inhibition) at 1uM” value was 2.65%.
Under `CC(C)c1ccc(OCC(=O)Nc2cccc(C(=O)Nc3ccccc3C(=O)O)c2)cc1` stands 10.1%; under `COc1ccc(C(C(=O)NC2CCCCC2)N(C(=O)Cc2c[nH]c3ccccc23)c2ccccc2)cc1OC` (stereo not shown), 10.2%.
Under `CC(=O)Nc1ccc(S(=O)(=O)Nc2cccc3cccnc23)cc1` stands 9.51%.
Take `O=C(CSc1ccc(Cl)cc1)Nc1ccc(-c2nc3ccccc3[nH]2)cc1`: the “hERG current change (%, negative = inhibition) at 1uM” value is recorded as 10.3%.
In the case of `Cc1nc2c(=O)n(C)c(=O)n(C)c2nc1Cl`, the “hERG current change (%, negative = inhibition) at 1uM” value is 9.86%.
Under `COc1ccc(OC)c(N2C(=O)NC(=O)C3(Cc4cc(C)ccc4N(C)C3)C2=O)c1` (stereo not shown) stands -0.505%; under `C=CCNc1nc(C(=O)OCC(=O)c2ccc(OC)cc2OC)cs1`, -5.45%; under `O=c1[nH]cnc2scc(-c3ccccc3)c12`, 8.36%.
In the case of `CCc1ccc(C(=O)NNc2ccc(C)c(Cl)c2)cc1` it was 5.64%; in that of `Cc1ccc(C(=O)NCCCNC(=O)Cc2ccc(Cl)cc2)cn1`, -8.64%.
Under `CC/C(=N\NC(=O)CNC(=O)/C=C/c1ccco1)c1ccccc1` stands 4.45%; under `COc1ccc(-n2c(SCC(=O)Nc3cc(C)on3)nc3ccc(O)cc3c2=O)cc1OC`, 22.3%.
For the molecule `Cc1ccc(C)c(OCc2cc(C(=O)N(C)Cc3ccccn3)no2)c1`, the “hERG current change (%, negative = inhibition) at 1uM” value was -1.12%.
With `CCC(c1nnnn1C1CCCCC1)N1CCN(C2CCCC2)CC1.Cl` (stereo not shown), the “hERG current change (%, negative = inhibition) at 1uM” value is 11.6%.
As to `Cc1ccccc1CNC(=O)C(=O)NCC1OCCCN1S(=O)(=O)c1cccs1` (stereo not shown), the “hERG current change (%, negative = inhibition) at 1uM” value is given as 13.9%.
In the case of `COc1ccc(/C=C/c2nc(C)c(-c3ccccc3)c(=O)[nH]2)cc1OC` it was 11.9%; in that of `Cc1cnc([N+](=O)[O-])n1CCOC(=O)NC(=O)c1c(F)cccc1F`, 5.12%.
In the case of `CC(C)NS(=O)(=O)c1ccc(CCC(=O)N2CCOCC2)cc1`, the “hERG current change (%, negative = inhibition) at 1uM” value is -0.27%.
In the case of `CN1CCN(Cc2c(C#N)c3ccccc3n2C)CC1` it was -19.6%; in that of `CC(C)n1cc(C(=O)N2CCCC(N3CCN(c4ccc(F)cc4)CC3)C2)cn1` (stereo not shown), 11.5%; in that of `Cc1ccc2c(c1)c1c3n2CCN(CC(O)CNC(C)C)C3CCC1.Cl.O` (stereo not shown), -1.61%.
Under `CCOC(=O)C(O)C1CCc2c([nH]c3ccc(C)cc23)C1=O` (stereo not shown) stands 10.9%.
In the case of `CCOCCn1c(N2CCN(c3ccc(OC)cc3)CC2)nc2c1c(=O)n(C)c(=O)n2C` it was -6.95%; in that of `CC(CN1CCCCC1)OC(=O)COc1ccc(Cl)cc1.Cl` (stereo not shown), 12.5%.
Consider `COC(CNC(=O)c1ccc2c(c1)ncn2-c1cc(C)cc(C)c1)OC`, for which the “hERG current change (%, negative = inhibition) at 1uM” value is recorded as 1%.
As for `Cc1cccc(C)c1NC(=O)CN(C)CC(=O)c1c(N)n(Cc2ccccc2)c(=O)n(C)c1=O`, the “hERG current change (%, negative = inhibition) at 1uM” value is given as 5%.
